# Data: the supplement of paper PMC3334620
# Whole data set: some 33,000 sequences, median “E-score (-0.5 to 0.5)” near -0.036, cut for the highest 2% near 0.37. This is one part of the list.
# Biological target: T1, Yer064c (UniProt P40041)
# T1 sequence: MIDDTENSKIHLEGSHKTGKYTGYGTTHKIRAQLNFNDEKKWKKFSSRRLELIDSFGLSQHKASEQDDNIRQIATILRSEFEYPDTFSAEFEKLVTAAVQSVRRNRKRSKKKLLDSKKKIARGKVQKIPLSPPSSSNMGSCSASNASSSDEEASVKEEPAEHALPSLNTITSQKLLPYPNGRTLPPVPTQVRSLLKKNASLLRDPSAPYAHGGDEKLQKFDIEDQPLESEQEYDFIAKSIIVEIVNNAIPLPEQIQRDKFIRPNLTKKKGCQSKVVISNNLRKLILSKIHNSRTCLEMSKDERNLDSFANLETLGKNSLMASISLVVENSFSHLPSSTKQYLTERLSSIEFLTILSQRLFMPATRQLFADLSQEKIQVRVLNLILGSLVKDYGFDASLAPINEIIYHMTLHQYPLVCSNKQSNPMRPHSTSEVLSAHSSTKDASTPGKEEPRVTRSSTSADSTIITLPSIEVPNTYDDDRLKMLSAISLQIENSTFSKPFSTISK
# Assay: PBM E-score (8-mer binding enrichment) (E-score (-0.5 to 0.5)); higher = stronger / more preferred TF binding; most listed sequences are background and not binding sites
# Conditions: protein concentration: 200 nM; construct: GST-full length
# Outline: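 For each ungapped eight-base word taken together with its reverse complement, the Universal PBM Analysis Suite assigned an E-score. Binding data came from GST-tagged yeast transcription factors, applied at about 100-200 nM, on universal all-10-mer Agilent arrays made double-stranded by primer extension. Fluorescent anti-GST marked bound protein, and scans were normalised with masliner.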
row,Sequence,PBM E-score
1,CAGGGTTC,-0.0967
2,CATTGGGG,-0.145
3,AGTCTAGG,-0.0693
4,AGGGGCAA,-0.279
5,AGTGTTGA,0.0634
6,AAGTGATG,0.0804
7,GCACCGAA,0.0443
8,AATTCGAG,-0.0849
9,ATCCTTGG,0.0927
10,AGAAAAAA,0.0323
11,CCATTTAA,0.182
12,CACTCAGC,-0.0645
13,AACTCGTC,0.00343
14,ACTTCTCG,-0.0591
15,AAGACTGT,0.254
16,AAGTTGAG,0.126
17,GGATTCGA,-0.11
18,ACGAAACC,-0.0418
19,CAGGTCGA,0.0262
20,CGCGATGC,-0.21
21,AGTTCCCA,-0.0103
22,AGGGTCCG,-0.326
23,ACAGGTGA,0.168
24,CATATCGG,-0.102
25,CTTCTCCA,-0.193

row,Sequence,PBM E-score
1,CAAATATA,-0.0548
2,TGTGTCAA,0.00966
3,CAGGACGC,-0.261
4,AGCGGTAG,0.00737
5,CAGGGGGC,-0.337
6,GCCCGCGA,-0.0919
7,ACCTGTAT,-0.138
8,AAAATCGG,-0.131
9,GTCCTGGA,-0.0558
10,GACGATGA,0.285
11,CCGCGTTC,-0.274
12,CTGTCTAC,-0.0153
13,GACGTTTA,-0.0582
14,GAAAAATC,0.0691
15,ACTGGCCG,-0.205
16,AGGATGTA,-0.0927
17,CGTAGAAC,-0.146
18,ATAGAAGC,-0.0871
19,ACAATCTC,-0.108
20,AACTCACC,0.275
21,CAGTACCG,-0.231
22,TAAGCAAA,-0.0484
23,GTTTGAGA,0.0063
24,GCAACGGA,-0.0959
25,GTATGTCA,0.0569

row,Sequence,PBM E-score
1,GAGCAGCC,-0.0909
2,AGCCGTAA,0.0882
3,GCGCACCA,-0.257
4,CCTGCTAA,-0.25
5,TCTAAACA,0.00267
6,ACAGCCAG,-0.0658
7,ATTCATCA,0.162
8,AACACTGG,-0.0679
9,CGATGGAA,-0.116
10,ACTCTTCC,0.223
11,CGGAAGGC,-0.196
12,ACGCGGCC,-0.211
13,GAGTAGAA,0.0321
14,GAAGACCA,0.0465
15,ATAAGAGC,-0.114
16,AGGTAGTA,0.0729
17,ACGCAGCG,-0.285
18,CAGCCCGA,-0.0877
19,AGTCATTC,0.482
20,ATGCGACG,-0.0574
21,AGGAACAC,-0.00719
22,CTTACGAA,0.0843
23,TACTGGCA,-0.0563
24,GAGGGCAA,-0.232
25,AACCTACA,-0.0331

row,Sequence,PBM E-score
1,TACTCGGA,0.188
2,CACCTAGA,0.00347
3,AAGAGGAT,-0.0191
4,ACAAGATC,-0.147
5,CTATGCAG,-0.0689
6,AAAATTGT,-0.0364
7,TCCCTGCA,-0.0522
8,GACGTGCC,-0.264
9,ATTAACGG,0.0909
10,GTTGAGAA,0.151
11,AGGGGGTC,-0.406
12,ATGGCCTA,-0.31
13,GACCAATC,-0.111
14,GTGTCAGA,0.179
15,GTACTGCA,-0.0703
16,ACTGCTCT,0.117
17,CCCGGGAG,-0.0275
18,AATAGTGC,-0.0995
19,CTACATCC,-0.155
20,CATAAGTC,0.297
21,CAGTACAC,0.0327
22,CCCCAACC,-0.144
23,GGACGTCC,-0.318
24,GAAATGCC,-0.309
25,AGAAAGAC,0.192

row,Sequence,PBM E-score
1,CAGAACAG,-0.00858
2,GATTTCGA,0.144
3,AGCGGTGA,0.0907
4,ACTAAGAG,0.113
5,AGTAATAA,0.204
6,AGGCCGTA,0.0443
7,CGCATGCA,-0.0148
8,AGTCCATC,0.204
9,TATCGGAA,0.215
10,AATCCCAG,-0.0564
11,CTAGCGAC,0.158
12,GTCGCTTA,0.218
13,GTGCCCTA,-0.317
14,CGTCGCGA,-0.101
15,ACCTGGCT,-0.167
16,AACATGAC,0.283
17,TCGGCTCA,0.134
18,GAGTACGA,0.307
19,GCCATGGA,0.0454
20,GCAGTATA,-0.224
21,GGTCGGTA,-0.162
22,AGACTGAT,0.219
23,CACTCTGC,-0.0532
24,CGGGGGCC,-0.234
25,GTCCGTGA,0.156

row,Sequence,PBM E-score
1,CGTCAAGC,-0.169
2,CAAGAAGG,-0.15
3,AATGTTCA,-0.0663
4,GTGGACCA,-0.0966
5,CGTTTGTC,-0.0205
6,GATTGCCC,0.0184
7,ACTGCTTC,-0.286
8,CTAACCAC,0.232
9,AGGACTAG,0.275
10,GATGCACC,-0.233
11,TTCAAGAA,0.169
12,TCCTAGCA,-0.168
13,CCGAATGC,-0.255
14,GGTTGTAA,-0.0256
15,CGGGCCGA,-0.176
16,GCGGGGAA,-0.0375
17,GAAGGCCC,-0.317
18,CCTTCCCG,-0.152
19,AGAAAAAG,-0.0405
20,CTGCCAAG,-0.121
21,AGTCAGGA,0.417
22,AGGGAAGC,-0.284
23,TCGAGAAA,-0.00532
24,ACATAGCA,-0.0756
25,TAGGAATA,-0.0475

row,Sequence,PBM E-score
1,ACTGCTCG,0.0783
2,CTATTTAA,0.196
3,AGTCTGAG,0.266
4,ATCGCGGG,0.00034
5,AGTTAAGG,0.102
6,ATTTTATG,0.00402
7,CTACGTGC,-0.106
8,GCAGAAGA,-0.16
9,AGACATAA,0.0973
10,CCAGTACG,-0.0016
11,GTCTTTAA,0.194
12,CCGTATAG,-0.0352
13,ACACTCCC,-0.114
14,CATTTTCA,0.0573
15,GGTCCGTA,-0.292
16,CAGGAATA,0.113
17,ATTTAATC,0.366
18,CCAAGTTA,0.0576
19,TTCCGAAA,-0.12
20,TAAGTACA,0.0696
21,ATCATAAA,0.25
22,GGAATAAA,0.00873
